Measured values from the supplement of paper PMC12217912.
The list shows a part of the results. Sequences were assembled here from the parent chain. Inactive controls read about 0.05.

B1: TEV protease; numbered along this chain (parent)
chain: MGESLFKGPRDYNPISSSICHLTNESDGHTTSLYGIGFGPFIITNKHLFRRNNGTLVVQSLHGVFKVKDTTTLQQHLVDGRDMIIIRMPKDFPPFPQKLKFREPQREERICLVTTNFQTKSMSSMVSDTSCTFPSGDGIFWKHWIQTKDGQCGSPLVSTRDGFIVGIHSASNFTNTNNYFTSVPKNFMELLTNQEAQQWVSGWRLNADSVLWGGHKVFMVKPEEPFQPVKEATQL

Variants of: B1
Experiment: raw area under fraction-flipped curve 0-4 h after induction (AUC4h, not background-subtracted), DNA-recorder readout of cleavage of the substrate (dimensionless); higher = more cleavage of the substrate by the protease variant
Settings: temperature: 34 °C; time window: 0-4 h after rhamnose induction
Protocol: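 In vivo DNA recorder in E. coli TOP10(DE3) ΔrhaA at 34 °C. Each TEVp single-site mutant (parent TEVp 0) is paired with a single-site variant of the 7-mer TEVs (canonical ENLYFQ|S). The substrate sits between flexible linkers in a Bxb1-sfGFP-TEVs-SsrA fusion, so cleavage stabilises Bxb1 and speeds flipping of a recombination array, read by NGS. The value is the raw area under the fraction-flipped curve over 0-4 h after rhamnose induction (AUC4h), with ≥20 reads per time point. It is not background-subtracted; inactive controls average about 0.047.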
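Also: Bxb1 expression induced with 0.2% (w/v) L-rhamnose at OD600 near 0.5, cultures sampled hourly, flipped fraction per protease–substrate barcode pair counted by paired-end Illumina sequencing.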

Variant	area with substrate EALYFQS	area with substrate EFLYFQS	area with substrate EGLYFQS	area with substrate EILYFQS	area with substrate EKLYFQS	area with substrate EPLYFQS	area with substrate ERLYFQS	area with substrate ESLYFQS	area with substrate ETLYFQS	area with substrate EVLYFQS	area with substrate EWLYFQS	area with substrate ECLYFQS	area with substrate EELYFQS	area with substrate EMLYFQS	area with substrate EQLYFQS	area with substrate EYLYFQS	area with substrate EDLYFQS	area with substrate EHLYFQS	area with substrate ELLYFQS
MGESLFKGPRDYNPISSSICHLTNESDGHTTSLYGIGFGPFIITNKHLFRRNNGTLVVQSLHGVFKVKDTTTLQQHLVDGRDMIIIRMPKDFPPFPQKLKFREPQREERICLVTTNFQTKSMSSMVSDTSCTFPSGDGIFWKHWIQTKLGQCGSPLVSTRDGFIVGIHSASNFTNTNNYFTSVPKNFMELLTNQEAQQWVSGWRLNADSVLWGGHKVFMVKPEEPFQPVKEATQL [D149L]	0.0835	0.0833	0.0592	0.0591	0.0782	0.0653	0.0793	0.0621	0.0937	0.0733	0.0693								
MGESLFKGPRDYNPISSSICHLTNESDGHTTSLYGIGFGPFIITNKHLFRRNNGTLVVQSLHGVFKVKDTTTLQQHLVDGRDMIIIRMPKDFPPFPQKLKFREPQREERICLVTTNFQTKSMSSMVSDTSCTFPSGIGIFWKHWIQTKDGQCGSPLVSTRDGFIVGIHSASNFTNTNNYFTSVPKNFMELLTNQEAQQWVSGWRLNADSVLWGGHKVFMVKPEEPFQPVKEATQL [D137I]	0.0949			0.119	0.0526			0.0924		0.108	0.101	0.0945	0.125	0.166	0.113	0.106			
MGESLFKGPRDYNPISSSICHLTNESDGHTTSLYGIGFGPFIITNKHLFRRNNGTLVVQSLHGVFKVKDTTTLQQHLVDGRDMIIIRMPKDFPPFPQKLKFREPQREERICLVTTNFQTKSMSSMVSDTSCTFPWGDGIFWKHWIQTKDGQCGSPLVSTRDGFIVGIHSASNFTNTNNYFTSVPKNFMELLTNQEAQQWVSGWRLNADSVLWGGHKVFMVKPEEPFQPVKEATQL [S135W]	0.0602	0.0563	0.0473		0.0506	0.0669		0.056	0.0522	0.0642	0.0484		0.0744		0.0736		0.0644	0.0641	0.0571
MGESLFKGPRDYNPISSSICHLTNESDGHTTSLYGIGFGPFIITNKHLFRRNNGTLVVQSLHGVFKVKDTTTLQQHLVDGRDMIIIRMPKDFPPFPQKLKFREPQREERICLVTTNFQTKSMSSMVSDTSCTFPSGDSIFWKHWIQTKDGQCGSPLVSTRDGFIVGIHSASNFTNTNNYFTSVPKNFMELLTNQEAQQWVSGWRLNADSVLWGGHKVFMVKPEEPFQPVKEATQL [G138S]	0.128		0.078	0.0906			0.103				0.0782		0.0871	0.118	0.116				0.0795
MGESLFKGPRDYNPISSSICHLTNESDGHTTSLYGIGFGPFIITNKHLFRRNNGTLVVQSLHGVFKVKDTTTLQQHLVDGRDMIIIRMPKDFPPFPQKLKFREPQREERICLVTTNFQTKSMSSMVSDTSCTFPSGDKIFWKHWIQTKDGQCGSPLVSTRDGFIVGIHSASNFTNTNNYFTSVPKNFMELLTNQEAQQWVSGWRLNADSVLWGGHKVFMVKPEEPFQPVKEATQL [G138K]	0.102			0.0833	0.0284			0.0861	0.0846	0.0792			0.109		0.0631	0.107			
MGESLFKGPRDYNPISSSICHLTNESDGHTTSLYGIGFGPFIITNKHLFRRNNGTLVVQSLHGVFKVKDTTTLQQHLVDGRDMIIIRMPKDFPPFPQKLKFREPQREERICLVTTNFQTKSMSSMVSDTSCTRPSGDGIFWKHWIQTKDGQCGSPLVSTRDGFIVGIHSASNFTNTNNYFTSVPKNFMELLTNQEAQQWVSGWRLNADSVLWGGHKVFMVKPEEPFQPVKEATQL [F133R]	0.105			0.097	0.198	0.157	0.123	0.124	0.0836	0.165	0.146		0.151	0.13	0.163		0.147	0.148	
MGESLFKGPRDYNPISSSICHLTNESDGHTTSLYGIGFGPFIITNKHLFRRNNGTLVVQSLHGVFKVKDTTTLQQHLVDGRDMIIIRMPKDFPPFPQKLKFREPQREERICLVTTNFQTKSMSSMVSDTSCTAPSGDGIFWKHWIQTKDGQCGSPLVSTRDGFIVGIHSASNFTNTNNYFTSVPKNFMELLTNQEAQQWVSGWRLNADSVLWGGHKVFMVKPEEPFQPVKEATQL [F133A]	0.124	0.091		0.126	0.0687	0.104	0.11	0.0693		0.107	0.0922	0.11							0.0965
MGESLFKGPRDYNPISSSICHLTNESDGHTTSLYGIGFGPFIITNKHLFRRNNGTLVVQSLHGVFKVKDTTTLQQHLVDGRDMIIIRMPKDFPPFPQKLKFREPQREERICLVTTNFQTKSMSSMVSDTSCTHPSGDGIFWKHWIQTKDGQCGSPLVSTRDGFIVGIHSASNFTNTNNYFTSVPKNFMELLTNQEAQQWVSGWRLNADSVLWGGHKVFMVKPEEPFQPVKEATQL [F133H]	0.143	0.0838		0.0992	0.125			0.112	0.106	0.112	0.0958		0.135				0.118		0.102
MGESLFKGPRDYNPISSSICHLTNESDGHTTSLYGIGFGPFIITNKHLFRRNNGTLVVQSLHGVFKVKDTTTLQQHLVDGRDMIIIRMPKDFPPFPQKLKFREPQREERICLVTTNFQTKSMSSMVSDTSCTFPSGDGIFWKHWIQKKDGQCGSPLVSTRDGFIVGIHSASNFTNTNNYFTSVPKNFMELLTNQEAQQWVSGWRLNADSVLWGGHKVFMVKPEEPFQPVKEATQL [T147K]	0.0613			0.06			0.0601	0.0545		0.055			0.0531	0.0649		0.0628			0.0677
MGESLFKGPRDYNPISSSICHLTNESDGHTTSLYGIGFGPFIITNKHLFRRNNGTLVVQSLHGVFKVKDTTTLQQHLVDGRDMIIIRMPKDFPPFPQKLKFREPQREERICLVTTNFQTKSMSSMVSDTSCTFPSGDGIFWKHWIQHKDGQCGSPLVSTRDGFIVGIHSASNFTNTNNYFTSVPKNFMELLTNQEAQQWVSGWRLNADSVLWGGHKVFMVKPEEPFQPVKEATQL [T147H]	0.0604	0.0512	0.0649	0.0656	0.0434	0.0571		0.064	0.0872	0.0573			0.0565	0.0524		0.0564	0.081	0.063	
MGESLFKGPRDYNPISSSICHLTNESDGHTTSLYGIGFGPFIITNKHLFRRNNGTLVVQSLHGVFKVKDTTTLQQHLVDGRDMIIIRMPKDFPPFPQKLKFREPQREERICLVTTNFQTKSMSSMVSDTSCTFPSGDGIFWKHWIQTKDDQCGSPLVSTRDGFIVGIHSASNFTNTNNYFTSVPKNFMELLTNQEAQQWVSGWRLNADSVLWGGHKVFMVKPEEPFQPVKEATQL [G150D]	0.0672							0.0564		0.059	0.0614	0.0483	0.0662						
MGESLFKGPRDYNPISSSICHLTNESDGHTTSLYGIGFGPFIITNKHLFRRNNGTLVVQSLHGVFKVKDTTTLQQHLVDGRDMIIIRMPKDFPPFPQKLKFREPQREERICLVTTNFQTKSMSSMVSDTSCTFPSGDGITWKHWIQTKDGQCGSPLVSTRDGFIVGIHSASNFTNTNNYFTSVPKNFMELLTNQEAQQWVSGWRLNADSVLWGGHKVFMVKPEEPFQPVKEATQL [F140T]	0.0609	0.0537			0.0597	0.0614	0.0848	0.0618		0.0609		0.0571		0.0683	0.0514				
MGESLFKGPRDYNPISSSICHLTNESDGHTTSLYGIGFGPFIITNKHLFRRNNGTLVVQSLHGVFKVKDTTTLQQHLVDGRDMIIIRMPKDFPPFPQKLKFREPQREERICLVTTNFQTKSMSSMVSDTSCTFPSGDGIFWKHWIQTHDGQCGSPLVSTRDGFIVGIHSASNFTNTNNYFTSVPKNFMELLTNQEAQQWVSGWRLNADSVLWGGHKVFMVKPEEPFQPVKEATQL [K148H]	0.088	0.075	0.0886	0.0781		0.0647	0.0803	0.0815					0.0975	0.0799	0.0778		0.101		0.109
MGESLFKGPRDYNPISSSICHLTNESDGHTTSLYGIGFGPFIITNKHLFRRNNGTLVVQSLHGVFKVKDTTTLQQHLVDGRDMIIIRMPKDFPPFPQKLKFREPQREERICLVTTNFQTKSMSSMVSDTSCTFNSGDGIFWKHWIQTKDGQCGSPLVSTRDGFIVGIHSASNFTNTNNYFTSVPKNFMELLTNQEAQQWVSGWRLNADSVLWGGHKVFMVKPEEPFQPVKEATQL [P134N]	0.0907			0.0747	0.0854	0.102	0.0849				0.08			0.0805	0.0914		0.125	0.0991	0.0739
MGESLFKGPRDYNPISSSICHLTNESDGHTTSLYGIGFGPFIITNKHLFRRNNGTLVVQSLHGVFKVKDTTTLQQHLVDGRDMIIIRMPKDFPPFPQKLKFREPQREERICLVTTNFQTKSMSSMVSDTSCTFPSGDGRFWKHWIQTKDGQCGSPLVSTRDGFIVGIHSASNFTNTNNYFTSVPKNFMELLTNQEAQQWVSGWRLNADSVLWGGHKVFMVKPEEPFQPVKEATQL [I139R]	0.106			0.0798	0.105	0.0888	0.0763	0.0712		0.0836	0.0782				0.0962	0.0971			0.0808
MGESLFKGPRDYNPISSSICHLTNESDGHTTSLYGIGFGPFIITNKHLFRRNNGTLVVQSLHGVFKVKDTTTLQQHLVDGRDMIIIRMPKDFPPFPQKLKFREPQREERICLVTTNFQTKSMSSMVSDTSCTFPSGDGCFWKHWIQTKDGQCGSPLVSTRDGFIVGIHSASNFTNTNNYFTSVPKNFMELLTNQEAQQWVSGWRLNADSVLWGGHKVFMVKPEEPFQPVKEATQL [I139C]	0.114	0.108	0.123	0.114	0.13		0.123	0.128	0.142	0.11		0.122			0.153	0.173		0.0819	
MGESLFKGPRDYNPISSSICHLTNESDGHTTSLYGIGFGPFIITNKHLFRRNNGTLVVQSLHGVFKVKDTTTLQQHLVDGRDMIIIRMPKDFPPFPQKLKFREPQREERICLVTTNFQTKSMSSMVSDTSCTFPSGDGIFWKHWIFTKDGQCGSPLVSTRDGFIVGIHSASNFTNTNNYFTSVPKNFMELLTNQEAQQWVSGWRLNADSVLWGGHKVFMVKPEEPFQPVKEATQL [Q146F]	0.131		0.103	0.109						0.0925				0.141				0.115	0.0912
MGESLFKGPRDYNPISSSICHLTNESDGHTTSLYGIGFGPFIITNKHLFRRNNGTLVVQSLHGVFKVKDTTTLQQHLVDGRDMIIIRMPKDFPPFPQKLKFREPQREERICLVTTNFQTKSMSSMVSDTSVTFPSGDGIFWKHWIQTKDGQCGSPLVSTRDGFIVGIHSASNFTNTNNYFTSVPKNFMELLTNQEAQQWVSGWRLNADSVLWGGHKVFMVKPEEPFQPVKEATQL [C131V]	0.139							0.111		0.0997			0.162						
MGESLFKGPRDYNPISSSICHLTNESDGHTTSLYGIGFGPFIITNKHLFRRNNGTLVVQSLHGVFKVKDTTTLQQHLVDGRDMIIIRMPKDFPPFPQKLKFREPQREERICLVTTNFQTKSMSSMVSDTMCTFPSGDGIFWKHWIQTKDGQCGSPLVSTRDGFIVGIHSASNFTNTNNYFTSVPKNFMELLTNQEAQQWVSGWRLNADSVLWGGHKVFMVKPEEPFQPVKEATQL [S130M]	0.0928		0.0791	0.0945				0.083	0.101	0.0847				0.131				0.0978	0.0841
